{
  "source": "PubChem BioAssay AID1347120",
  "about": "(National Center for Advancing Translational Sciences (NCATS), 2019)",
  "note": "In all, about 390,000 compounds went through this assay and about 930 (0.24%) were called active. This list was built around the results that the source calls inconclusive (neither active nor inactive); the mix of calls is not that of the screen. The call rests on the fitted dose curve; in most records, active means well fitted activation curve with a large enough effect; inconclusive means small, poorly fitted or top-dose-only effect; inactive means no such curve, though single readings can be large or run the other way. Potencies of inconclusive entries are doubtful fits and often do not repeat. Potency means the concentration at half of the fitted maximal effect; tags describe the fitted curve by direction and shape.",
  "data": [
    {"experiment": "qHTS for Suppressors of FUS Proteinopathy: Primary screen using FUS-linked yeast assay; further: nearly all actives have a fitted effect of over 55% in size;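 on growth rescue (activation): plate controls were DMSO vehicle for no effect and reference control for full effect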", "settings": "S. cerevisiae FUS-expressing, OD600, 24 h; Potency: growth rescue; growth rescue (activation): at 76.6 µM (top of the series)", "method_in_brief": "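Galactose (2%) drives FUS expression in yeast precultured in raffinose; seeding density OD 0.005. Test compounds incubated 24hr at 30C and 99% humidity before absorbance at 600 nm was measured.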", "values": [
      {"smiles": "CC1Cc2ccccc2N1S(=O)(=O)c1ccc2c(c1)n(C)c(=O)c(=O)n2C", "note": "(stereo not given)", "Potency": "inconclusive: 31.6 µM [activator, partial curve, poor fit]"},
      {"smiles": "CCCC[C@H]1C2CC(OC(=O)Nc3cc(C)cc(C)c3)C(C2)[C@H]2CCCCN21", "note": "(stereo not given in full)", "growth rescue (activation)": "inactive: -6.49%"},
      {"smiles": "COc1ccc(S(=O)(=O)N2Cc3ccccc3CC2C(=O)Nc2ccc(C)cc2)cc1OC", "note": "(stereo not given)", "Potency": "inconclusive: 31.6 µM [activator, single point]"},
      {"smiles": "Cc1ccc(-n2c(-c3ccc(Br)cc3)c[n+]3c2CCc2ccc4cccnc4c2-3)cc1", "Potency": "inconclusive: 4.47 µM [activator, full curve]"},
      {"smiles": "Cc1ccc(NC(=O)C2CCN(S(=O)(=O)c3ccc4c(c3)NC(=O)C(C)S4)CC2)cc1C", "note": "(stereo not given)", "Potency": "inconclusive: 28.2 µM [activator, single point]"},
      {"smiles": "O=C(c1cnc(N2CCN(c3ncccn3)CC2)c2ccccc12)N1CCN(c2ncccn2)CC1", "growth rescue (activation)": "inactive: 22%"},
      {"smiles": "COc1cccc(-c2cc(C(F)(F)F)nc(NCCc3ccc(OC)c(OC)c3)n2)c1", "growth rescue (activation)": "inactive: -21%"},
      {"smiles": "Cc1c(C2(O)CCCCC2)[nH]c2cc(C(F)(F)F)ccc12", "growth rescue (activation)": "inactive: -28.5%"},
      {"smiles": "CCCCOc1ccc(C(C)NC(=O)CN2C(=O)CSc3ccc(S(=O)(=O)N4CCOCC4)cc32)cc1", "note": "(stereo not given)", "Potency": "inconclusive: 35.5 µM [activator, single point]"},
      {"smiles": "CCCN(CCC)C(=O)Cn1c(=O)n(-c2cccc(C)c2)c(=O)c2c1c1cc(OC)ccc1n2C", "Potency": "inconclusive: 14.1 µM [activator, partial curve, poor fit]"},
      {"smiles": "Cc1ccc(S(=O)(=O)N2[C@@H](c3ccc(F)cc3)C(C(=O)O)=CC[C@H]2c2ccc3c(c2)OCO3)cc1", "growth rescue (activation)": "inactive: 11.6%"},
      {"smiles": "COc1ccccc1C(=O)Nc1nc2n(n1)C(c1ccc(F)cc1)C=C(c1ccc(Cl)cc1)N2", "note": "(stereo not given)", "Potency": "inconclusive: 35.5 µM [activator, single point]"},
      {"smiles": "COc1ccccc1NC(=O)C1=C(C)Nc2nc(SC)nn2C1c1ccccc1Cl", "note": "(stereo not given)", "growth rescue (activation)": "inactive: -12.8%"},
      {"smiles": "COc1ccccc1C(=O)Nc1ccc2nc(SCC(=O)N3CCCc4ccccc43)sc2c1", "Potency": "inconclusive: 10 µM [activator, full curve, poor fit]"},
      {"smiles": "O=C(Nc1ccc(F)c(Cl)c1)c1cc(C2CCCCN2C(=O)c2ccccc2)on1", "note": "(stereo not given)", "Potency": "inconclusive: 31.6 µM [activator, single point]"},
      {"smiles": "CCCCN(C(=O)C1CCC(CNS(=O)(=O)c2cccc3nsnc23)CC1)c1ccccc1", "note": "(stereo not given)", "Potency": "inconclusive: 39.8 µM [activator, single point]"},
      {"smiles": "CC(=O)O[C@@H](C[C@@H](C)C1=C2C[C@H](O)C3[C@@]4(C)CCC(=O)C(C)(C)C4CC[C@]3(C)[C@@]2(C)CC1)[C@H]1OC1(C)C", "note": "(stereo not given in full)", "Potency": "inconclusive: 14.1 µM [activator, partial curve, poor fit]"},
      {"smiles": "Cc1cc2oc(=O)c(CC(=O)NCCc3ccccc3F)c(C)c2c2occ(C(C)(C)C)c12", "Potency": "inconclusive: 35.5 µM [activator, single point]"},
      {"smiles": "COc1ccccc1NC(=O)Cn1cnc2sc(C(=O)Nc3cc(OC)c(OC)c(OC)c3)c(C)c2c1=O", "growth rescue (activation)": "inactive: 21.6%"},
      {"smiles": "COCCCn1cc(CN2CC(N3CCN(Cc4ccccc4F)CC3)CS2(=O)=O)nn1", "note": "(stereo not given)", "growth rescue (activation)": "inactive: -7.49%"},
      {"smiles": "O=C(COC(=O)/C=C/C(=O)N1CCN(c2ccccc2)CC1)NC(c1ccccc1)c1ccccc1", "Potency": "inconclusive: 31.6 µM [activator, single point]"},
      {"smiles": "Cc1nn(-c2ccccc2)c2[nH]c(=O)c(CNc3ccc(N4CCOCC4)cc3)cc12", "Potency": "inconclusive: 14.1 µM [activator, partial curve, poor fit]"},
      {"smiles": "Cc1cc(-n2c(C)cc(C(=O)CSc3nncn3C(C)C)c2C)no1", "Potency": "inconclusive: 39.8 µM [activator, single point]"},
      {"smiles": "COc1ccc2c(CNCc3cccs3)c(C(=O)O)n(Cc3ccc(F)cc3)c2c1", "Potency": "inconclusive: 28.2 µM [activator, single point]"},
      {"smiles": "Cc1ccccc1NC(=O)OCCCN1C(=O)CCC12CCC(C)CC2", "note": "(stereo not given)", "growth rescue (activation)": "inactive: 14.2%"},
      {"smiles": "O=C(NC1CCCCC1)C(c1cccs1)N(C(=O)c1ccco1)c1ccc2c(c1)OCCO2", "note": "(stereo not given)", "growth rescue (activation)": "inactive: 31.9%"},
      {"smiles": "CC[C@@]12C(=O)N(c3cccc(Br)c3)C(=O)N1[C@H](c1cccc(C)c1)[C@@H]1C(=O)N(Cc3ccccc3)C(=O)[C@@H]12", "Potency": "inconclusive: 15.8 µM [activator, partial curve, poor fit]"},
      {"smiles": "O=S(=O)(c1ccc(CN2CCOCCOCCN(Cc3ccc(S(=O)(=O)C(F)(F)F)cc3)CCOCC2)cc1)C(F)(F)F", "growth rescue (activation)": "inactive: 12.3%"},
      {"smiles": "Cc1cc(C)cc(-n2c(SCC(=O)Nc3ccccc3)nc3c(oc4ccccc43)c2=O)c1", "growth rescue (activation)": "inactive: 1.49%"},
      {"smiles": "O=C1CSC(c2ccccc2[N+](=O)[O-])N1CCc1ccccc1", "note": "(stereo not given)", "growth rescue (activation)": "inactive: 18.6%"},
      {"smiles": "CC(=O)Nc1ccc(-c2sc(Nc3cccc4ccccc34)n[n+]2-c2ccccc2)cc1", "Potency": "active: 31.6 µM"},
      {"smiles": "C[C@H](CO)N1C[C@H](C)[C@@H](CN(C)Cc2ccc(-c3ccccc3)cc2)Oc2c(NS(=O)(=O)c3ccccc3)cccc2C1=O", "Potency": "active: 22.4 µM"},
      {"smiles": "CCN(Cc1nc2cc(Cl)ccc2c(=O)[nH]1)C(=O)c1cc(C2CC2)nn1-c1ccccc1", "Potency": "inconclusive: 39.8 µM [activator, single point]"},
      {"smiles": "O=C(CC1N=C2c3ccccc3N=C(SCc3ccc(F)cc3)N2C1=O)NCCc1ccccc1", "note": "(stereo not given)", "Potency": "inconclusive: 31.6 µM [activator, single point]"},
      {"smiles": "N#Cc1ccc(C(C(=O)NC2CCCCC2)n2c(=O)c(-c3cc4ccccc4[nH]3)nc3ccccc32)cc1", "note": "(stereo not given)", "Potency": "inconclusive: 15.8 µM [activator, partial curve, poor fit]"},
      {"smiles": "COCCNc1nnc(SC(C)C(=O)Nc2ccc(-c3nc4ccc(C)cc4s3)cc2)s1", "note": "(stereo not given)", "Potency": "inconclusive: 28.2 µM [activator, partial curve, poor fit]"},
      {"smiles": "O=C(/C=C/c1ccccc1)c1cc(Br)ccc(=O)c1O", "Potency": "inconclusive: 20 µM [activator, partial curve]"},
      {"smiles": "CC(=O)Nc1cccc(-c2ccnc3c2CC(C)(C(=O)Nc2cccc(Oc4ccccc4)c2)O3)c1", "note": "(stereo not given)", "Potency": "inconclusive: 28.2 µM [activator, single point]"},
      {"smiles": "Cc1ccc(C)c(NC(=O)CN2C(=O)CCc3cc(S(=O)(=O)N4CCCCC4)ccc32)c1", "Potency": "inconclusive: 35.5 µM [activator, single point]"},
      {"smiles": "Cc1ccc(C)c(NC(=S)N(C2CCCCC2)C(C)c2cccnc2)c1", "note": "(stereo not given)", "growth rescue (activation)": "inactive: 10.5%"},
      {"smiles": "CC(=O)Nc1ccc(NC(=O)c2ccc3c(c2)N(Cc2cccc(Cl)c2)C(=O)c2ccccc2S3=O)cc1", "note": "(stereo not given)", "Potency": "inconclusive: 50.1 µM [activator, single point]"},
      {"smiles": "O=C(NNS(=O)(=O)c1ccccc1[N+](=O)[O-])c1cc2ccccc2cc1O", "Potency": "inconclusive: 15.8 µM [activator, partial curve, poor fit]"},
      {"smiles": "CCOc1cc(C(=O)Nc2cc3c(cc2N2CCCC2)n(C)c(=O)c(=O)n3C)cc(OCC)c1OCC", "growth rescue (activation)": "inactive: 3.11%"},
      {"smiles": "COC(=O)c1ccc(C2NC(=S)N(c3ccccc3)C(C)=C2C(=O)Nc2ccccc2OC)cc1", "note": "(stereo not given)", "Potency": "inconclusive: 31.6 µM [activator, partial curve, poor fit]"},
      {"smiles": "CCc1ccc(S(=O)(=O)Nc2cccc(-c3ccc(N4CCCCC4)nn3)c2)s1", "Potency": "inconclusive: 35.5 µM [activator, single point]"},
      {"smiles": "O=C(NC(c1ccc(F)cc1)c1ccc2ccccc2n1)C1CCN(CCOc2ccc(F)cc2)CC1", "note": "(stereo not given)", "Potency": "inconclusive: 15.8 µM [activator, partial curve, poor fit]"},
      {"smiles": "CCc1cc2c(cc3c(=O)n(CC(=O)NC(C)c4ccccc4)ncn32)s1", "note": "(stereo not given)", "growth rescue (activation)": "inactive: 27.5%"},
      {"smiles": "CCCOc1ccc(C(=O)Nc2ccc(N3CCOCC3)cc2N2CCOCC2)cc1OCC", "Potency": "inconclusive: 20 µM [activator, single point]"},
      {"smiles": "CCc1cc(=O)oc2cc(C)c(CN3CCCC(C)C3)c(O)c12", "note": "(stereo not given)", "Potency": "active: 7.08 µM"},
      {"smiles": "Cc1cc(C)nc(-n2nc(C)c3c2N(Cc2ccccc2F)C(=O)CC3c2ccc(Cl)cc2)n1", "note": "(stereo not given)", "Potency": "inconclusive: 39.8 µM [activator, single point]"},
      {"smiles": "CCC1CN(C(=O)N2CCC(C(=O)NCCc3ccc(OC)cc3OC)CC2)c2cc(C)ccc2O1", "note": "(stereo not given)", "Potency": "inconclusive: 12.6 µM [activator, partial curve, poor fit]"},
      {"smiles": "Cc1cn(-c2cc(NC(=O)c3ccc(C)c(Nc4nccc(-c5cccnc5)n4)c3)cc(C(F)(F)F)c2)cn1", "growth rescue (activation)": "inactive: 0.635%"},
      {"smiles": "CCCCN(CCCC)CC(O)c1cc(Cl)cc2c1-c1ccc(Cl)cc1/C2=C/c1ccc(Cl)cc1", "note": "(stereo not given)", "Potency": "inconclusive: 35.5 µM [activator, partial curve, poor fit]"},
      {"smiles": "O=C(Nc1ccc(N2CCCC2)c(Cl)c1)c1ccc(Br)o1", "Potency": "inconclusive: 15.8 µM [activator, partial curve, poor fit]"},
      {"smiles": "COc1cc2c(c(OC)c1OC)-c1ccc(NC(=O)c3ccc(F)cc3)c(=O)cc1[C@@H](NC(C)=O)CC2", "Potency": "inconclusive: 20 µM [activator, single point]"},
      {"smiles": "CC(=O)c1ccc(C#CC(C)(C)O)s1", "Potency": "inconclusive: 4.47 µM [activator, single point]"},
      {"smiles": "O=C(Nc1cccc2c1CCCC2)c1cc(C2CCCCN2S(=O)(=O)c2cccs2)on1", "note": "(stereo not given)", "Potency": "inconclusive: 35.5 µM [activator, partial curve, poor fit]"},
      {"smiles": "C/C(=N\\NC(=O)Cc1cccn1C)c1cccs1", "Potency": "inconclusive: 35.5 µM [activator, single point]"},
      {"smiles": "NS(=O)(=O)c1cccc(NC(=O)/C=C/c2cccs2)c1", "growth rescue (activation)": "inactive: 10.1%"},
      {"smiles": "O=C1Cc2cc(S(=O)(=O)N3CCN(c4cccc(Cl)c4)CC3)ccc2N1", "Potency": "inconclusive: 10 µM [activator, partial curve, poor fit]"}
    ]}
  ]
}
